# Reference: article PMC4336329 (PLoS ONE, 2015)
# Among all 310,000 compounds or so, about 2,200 (0.71%) showed an effect of 50% or more. Effects have a minus sign here. This is one part of the list.
# Target: human ether-à-go-go-related gene (hERG) potassium channel (human, UniProt Q12809)
# Test: primary screen, population patch clamp on CHO cells stably expressing hERG
# human ether-à-go-go-related gene (hERG) potassium channel, sequence (Q12809 whole entry, looked up): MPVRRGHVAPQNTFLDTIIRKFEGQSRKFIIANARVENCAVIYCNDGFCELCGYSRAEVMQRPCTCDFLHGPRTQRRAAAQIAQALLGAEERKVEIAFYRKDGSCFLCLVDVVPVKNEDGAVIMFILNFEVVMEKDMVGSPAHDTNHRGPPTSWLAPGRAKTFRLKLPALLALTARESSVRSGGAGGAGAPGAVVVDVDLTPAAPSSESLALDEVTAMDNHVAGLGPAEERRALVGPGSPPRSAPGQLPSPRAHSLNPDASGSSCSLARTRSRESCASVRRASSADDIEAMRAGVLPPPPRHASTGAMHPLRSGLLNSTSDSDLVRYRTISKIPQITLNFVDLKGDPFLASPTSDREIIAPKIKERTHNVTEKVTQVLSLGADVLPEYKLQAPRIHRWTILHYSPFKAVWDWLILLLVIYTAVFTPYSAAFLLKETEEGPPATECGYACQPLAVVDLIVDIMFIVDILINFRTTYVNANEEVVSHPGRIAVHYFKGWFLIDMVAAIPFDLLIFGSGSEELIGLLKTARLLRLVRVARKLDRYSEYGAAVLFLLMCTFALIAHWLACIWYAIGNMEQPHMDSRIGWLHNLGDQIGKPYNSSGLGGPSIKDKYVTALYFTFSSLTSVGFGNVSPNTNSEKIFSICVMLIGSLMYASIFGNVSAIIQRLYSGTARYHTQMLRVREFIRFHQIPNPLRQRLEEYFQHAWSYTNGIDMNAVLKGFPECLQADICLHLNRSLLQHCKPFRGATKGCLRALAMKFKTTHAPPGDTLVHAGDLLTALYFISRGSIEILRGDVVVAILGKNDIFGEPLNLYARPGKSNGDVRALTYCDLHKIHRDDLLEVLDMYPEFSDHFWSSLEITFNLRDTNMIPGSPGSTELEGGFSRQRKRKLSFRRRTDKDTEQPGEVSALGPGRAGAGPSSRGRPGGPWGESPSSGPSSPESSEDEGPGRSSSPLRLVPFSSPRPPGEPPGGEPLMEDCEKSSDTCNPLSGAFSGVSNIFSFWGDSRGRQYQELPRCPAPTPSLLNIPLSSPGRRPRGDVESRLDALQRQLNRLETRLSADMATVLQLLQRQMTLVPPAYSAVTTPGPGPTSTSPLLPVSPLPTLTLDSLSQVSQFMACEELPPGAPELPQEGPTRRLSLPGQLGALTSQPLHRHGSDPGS
row,SMILES,"hERG current change (%, negative = inhibition) at 1uM [%]"
1,CC(=O)C1=C(C)Nc2cc(C(F)(F)F)ccc2S1,7.9
2,CCCCn1c(SCc2nc(N)nc(Nc3ccccc3C)n2)nc2ccccc2c1=O,2.25
3,COc1ccc(C(c2sc3nc(C)nn3c2O)N2CCc3ccccc3C2)cc1 (stereo not shown),12.6
4,O=C(NCCc1nc2ccccc2[nH]1)c1ccco1,11.5
5,CCC(=O)Nc1ccc(C(=O)Nc2ccc3c(c2)OCO3)cc1,19.6
6,O=c1oc2ccccc2c2c1C(O)CO2 (stereo not shown),17.5
7,CCn1cc(C2C(C(=O)Nc3ccc(Br)cn3)=C(C)NC3=C2C(=O)CCC3)c(C)n1 (stereo not shown),11.2
8,CCOc1ccc(N2C(=O)/C(=C/c3ccccn3)SC2=S)cc1,1.84
9,Cc1ccc2c(Cl)c(C(=O)Nc3cccnc3)sc2c1,16.1
10,Cc1ccc(CS(=O)Cc2ccc(C(=O)N3CCN(C4CCCCC4)CC3)o2)cc1 (stereo not shown),9.81
11,Cc1ccc(C)c(C(=O)c2c(C)nc3sccn23)c1,-9.68
12,Cc1nc(C(=O)NNC(=O)c2c(-c3c(Cl)cccc3Cl)noc2C)cs1,7.1
13,COc1cccc(C=O)c1OCCCOc1cccc2cccnc12,11.9
14,Cc1cc(C)n2nc(SCC(=O)N(Cc3ccccc3)C3CCS(=O)(=O)C3)nc2n1 (stereo not shown),12.7
15,CCOc1ccccc1N1CCN(C(=O)c2cn(CC3CCCCC3)nn2)CC1,0.776
16,C#CCN1C(=O)C(O)(CC(=O)c2ccc(OC)c(OC)c2)c2ccccc21 (stereo not shown),0.756
17,O=c1c2ccccc2nc(SCc2ccccc2F)n1C1CCCC1,7
18,CSc1nnc(-c2ccc(C(F)(F)F)nc2C)o1,9.09
19,CCOc1ccccc1NC(=O)Cc1ccccc1OC,4.73
20,CCOc1cccc(C2/C(=C(/O)c3ccc4c(c3)CC(C)O4)C(=O)C(=O)N2CCN2CCOCC2)c1 (stereo not shown),11.6
21,CCOc1ccc(OCC)c(NC(=O)C2COc3ccccc3O2)c1 (stereo not shown),11.9
22,Cc1ccc(Cn2c(=O)c3ccccc3n3c(SCC(=O)N4CCCCC4C)nnc23)cc1 (stereo not shown),-16.1

row,SMILES,"hERG current change (%, negative = inhibition) at 1uM [%]"
1,Cc1ccc(CNC(=O)c2ccc(N3CCC4(CC3)CC(c3ccccc3)=NO4)c(NC(=O)c3ccco3)c2)cc1,11
2,O=C1N(c2ccccc2)C2CS(=O)(=O)CC2N1c1ccc(Cl)c(Cl)c1 (stereo not shown),9.4
3,COC(=O)COc1cc2ccccc2cc1C(=O)Nc1ccccc1,6.49
4,COc1ccccc1/C=C1\Cc2ccccc2C1=O,9
5,Nc1nonc1/C(=N/O)N1CCN(CCO)CC1,-4.07
6,C=CCc1ccc(OCC(O)CO)c(OC)c1 (stereo not shown),14.3
7,COc1ccc(NC(=S)NCc2ccc(F)cc2)cc1,0.619
8,CCN(CC)C(=O)C(=O)Nc1cc(C(F)(F)F)ccc1Cl,6.47
9,Oc1cc2c(cc1CN1CCN(c3cccc(C(F)(F)F)c3)CC1)CCC2,4.86
10,COC(=O)c1ccccc1NC(=O)C(C)n1nc(C)c2c(C)n(-c3ccccc3)nc2c1=O (stereo not shown),18
11,CCOc1ccc(S(=O)(=O)Nc2ccccc2C(=O)N2CCCC2)cc1,6.12
12,CC(NC(=O)c1cc(COc2c(F)cccc2F)on1)c1cnn(-c2ccccc2)c1 (stereo not shown),4.97
13,Cc1ccc(CSCc2ccc(C(=O)NC3CC3)o2)cc1,5.51
14,Cc1ccc(OCC(=O)N2CCN(CC3CC4C=CC3C4)CC2)cc1.O=C(O)C(=O)O (stereo not shown),3.15
15,O=C(CCc1nnc(CCCc2ccccc2)o1)N1CCCCCC1,30.5
16,C[C@@H](NC(=O)c1nc[nH]c1C(=O)N[C@H](C)c1ccccc1)c1ccccc1,12.1
17,CCOC(=O)N1CCN(c2ccnc3cc(Cl)ccc23)CC1,-36.7
18,CN(c1ccccc1)S(=O)(=O)c1cccc(C(=O)NC2CC(C)(C)NC(C)(C)C2)c1,2.96
19,Cc1ccc(Oc2ncccc2NC(=O)CCCC(=O)O)c2c1CCC2,14.8
20,O=C1[C@@H]2C(Cc3ccc(O)cc3)NC3(C(=O)Nc4ccc(F)cc43)[C@@H]2C(=O)N1c1ccc(F)cc1 (stereo partly shown),14.6
21,O=C1OC(Nc2ccc3c(c2)OCO3)c2ccccc21 (stereo not shown),11.3
